Test results taken from PMC4336329 (PLoS ONE, 2015).
The whole screen tested about 310,000 compounds, of which about 14,000 (4.5%) showed an effect of 50% or more. The effect is printed as a negative number. The list shows a part of the results.

The compounds below were run against human ether-à-go-go-related gene (hERG) potassium channel (human, UniProt Q12809) (assay: primary screen, population patch clamp on CHO cells stably expressing hERG).
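Note: peak tail current of the secondary pulse compared with the same well before compound.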

Sequence of human ether-à-go-go-related gene (hERG) potassium channel (Q12809 whole entry, looked up): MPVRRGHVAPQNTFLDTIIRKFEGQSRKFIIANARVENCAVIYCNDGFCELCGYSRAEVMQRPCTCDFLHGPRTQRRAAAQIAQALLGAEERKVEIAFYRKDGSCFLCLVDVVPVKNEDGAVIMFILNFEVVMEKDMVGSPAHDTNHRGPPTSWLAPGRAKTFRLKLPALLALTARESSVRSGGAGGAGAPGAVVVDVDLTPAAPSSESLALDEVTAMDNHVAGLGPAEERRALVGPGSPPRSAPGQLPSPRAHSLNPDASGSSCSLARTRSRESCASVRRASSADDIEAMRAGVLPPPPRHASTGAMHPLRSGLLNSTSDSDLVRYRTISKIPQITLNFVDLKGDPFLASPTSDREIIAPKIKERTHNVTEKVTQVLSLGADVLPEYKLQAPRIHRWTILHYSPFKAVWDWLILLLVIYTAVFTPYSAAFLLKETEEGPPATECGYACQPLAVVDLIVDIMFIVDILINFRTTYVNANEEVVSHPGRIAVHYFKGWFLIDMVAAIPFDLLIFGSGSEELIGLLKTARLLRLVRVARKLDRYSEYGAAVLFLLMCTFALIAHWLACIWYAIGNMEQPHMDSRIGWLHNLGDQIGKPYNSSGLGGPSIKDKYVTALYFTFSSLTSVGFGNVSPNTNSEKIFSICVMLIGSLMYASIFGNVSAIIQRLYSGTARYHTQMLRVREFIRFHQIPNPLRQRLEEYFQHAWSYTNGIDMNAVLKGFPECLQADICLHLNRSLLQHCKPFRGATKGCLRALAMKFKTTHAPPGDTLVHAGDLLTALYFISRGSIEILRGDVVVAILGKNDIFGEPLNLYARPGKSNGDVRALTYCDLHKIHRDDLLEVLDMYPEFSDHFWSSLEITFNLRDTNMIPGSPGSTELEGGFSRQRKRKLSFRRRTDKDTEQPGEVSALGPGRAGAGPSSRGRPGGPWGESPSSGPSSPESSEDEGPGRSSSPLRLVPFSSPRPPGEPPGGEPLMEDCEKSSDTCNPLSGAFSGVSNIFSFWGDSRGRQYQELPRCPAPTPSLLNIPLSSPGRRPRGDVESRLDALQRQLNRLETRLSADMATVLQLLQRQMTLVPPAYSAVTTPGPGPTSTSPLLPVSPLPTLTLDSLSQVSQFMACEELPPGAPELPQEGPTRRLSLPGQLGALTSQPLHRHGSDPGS

Compound	hERG current change (%, negative = inhibition) at 10uM [%]
COC(=O)c1c(C)[nH]c(C(=O)C(C)OC(=O)C2=NNC(=O)CC2)c1C (stereo not shown)	-1.8
O=C(Cc1cccc(C(F)(F)F)c1)Nc1ccccc1N1CCCC1	4.72
COCCCN(C(=O)c1ccco1)c1nc(-c2cc(OC)ccc2OC)cs1	-4.07
CCNC(=O)CN1c2cccc3cccc(c23)S1(=O)=O	0.074
COc1ccc(CCn2c(=O)[nH]c3cc(C(=O)N4CCN(c5ccccn5)CC4)ccc3c2=O)cc1OC	10.1
O=C(CN1CCN(C(=O)C2CCCO2)CC1)Nc1c(Cl)cccc1Cl (stereo not shown)	13.8
O=C(NCc1ccco1)c1cc([N+](=O)[O-])ccc1Cl	11.2
CC(=O)Nc1c(C(=O)N2CCOCC2)cnn1-c1ccc(C)c(C)c1	9.22
COc1cc(CN2CCc3ccccc3C2)cc([N+](=O)[O-])c1O	8.65
COC(=O)[C@H](CCSC)NC(=O)Nc1ccc(C(C)C)cc1	-11.4
CCS(=O)(=O)c1ccc(O)c(NC(=O)CCCC(=O)O)c1	-10.7
C=CCOC(=O)C1=C(C)Nc2ncnn2C1c1cccs1 (stereo not shown)	4.21
O=C(CCC(=O)c1cccs1)NCCc1ccc(F)cc1	0.044
N#Cc1cc2c(nc1Cl)CCCC2	4.96
Cc1ccc(C)c(NC(=O)C(NCC(C)(C)N2CCOCC2)c2ccccc2)c1 (stereo not shown)	-62.6
Cc1cc(C(=O)CSc2nc(N)cc(=O)[nH]2)c(C)n1CCc1ccc(F)cc1	1.93
CN(C)CCN(C(=O)c1ccc(C(=O)c2ccccc2)cc1)c1nc2cc3c(cc2s1)OCO3.Cl	3.43
O=C(c1ccco1)N1CCN(c2ncnc3sc4c(c23)CCC4)CC1	-56.6
CC12CC(NC(=O)N1c1ccc(C(=O)N3CCN(c4ccc(F)cc4)CC3)cc1)c1ccccc1O2 (stereo not shown)	-8.38
CCS(=O)(=O)c1nc(S(=O)(=O)c2ccc(C)cc2)c(N2CCOCC2)s1	-11.1
Cc1nn2cc(-c3ccc(Cl)cc3)cnc2c1Br	10.3
COc1cc(CNc2nc3c(C)cc(C)cc3s2)ccc1O.Cl	27.3

Compound	hERG current change (%, negative = inhibition) at 10uM [%]
CC(C)(C)c1cc(=O)n2[nH]c(N)nc2n1	5.31
O=[N+]([O-])c1ccc(-c2ccccc2)c([As](=O)(O)O)c1	11.9
CCCc1[nH]n(-c2ccc([N+](=O)[O-])cc2)c(=O)c1C=NCCc1c[nH]c2ccccc12	8.42
Cc1sc2nc(CN3CCCCC3)nc(Nc3ccc4c(c3)OCCO4)c2c1C	-85.8
Cc1cc(C)cc(NC(=O)c2ccc(CSc3nnnn3C)cc2)c1	-24
CC(=O)Oc1ccc2c(c1)O/C(=C\c1ccncc1)C2=O	16.2
Cl.O=c1[nH]c2ccccc2n1CCCN1CCCCC1	16.5
CC(C)n1c(N2CCN(C(=O)N3CCCCC3)CC2)nc2ccccc21	-15.8
Clc1ccc(-c2cc(COc3ccccc3)no2)cc1Cl	-0.662
O=C1CCC(C(=O)N2CCCCO2)CN1Cc1cccc(F)c1 (stereo not shown)	8.75
Cc1ccc(-n2nc3c(Cl)nnc(C)c3c2C)cc1	1.43
CCN(CC)CCCNc1nc2cc(OC)c(OC)cc2c2nc(-c3cccnc3)nn12	-2.29
Cc1ccccc1C(=O)Nc1cccc(NC(=O)Cn2cnc3c(=O)n(C)c(=O)n(C)c32)c1	-21.1
CC(=O)Nc1ccc(-c2nnc(SCC(=O)Nc3ccc4c(c3)oc3ccccc34)n2C)cc1	11.3
O=c1c2ccccc2nc(-c2ccccc2)n1-n1cccc1	9.64
Cc1cc(C)cc(NC2=C(N)C(=O)c3ccccc3C2=O)c1	13.7
CC(NS(=O)(=O)CCNC(=O)c1ccccc1)c1ccccc1 (stereo not shown)	9.29
COc1nc(N)c(C#N)c(-c2ccc(N(C)CCC#N)cc2)c1C#N	-14.1
COC(=O)c1ccccc1NC(=O)COC(=O)/C=C/c1ccco1	-0.27
COc1ccc(Nc2nc(N)c([N+](=O)[O-])c(N3CCN(C)CC3)n2)cc1	-26.6
Cc1ccc(NC(=O)C2CCCN(C(=O)NCc3ccccc3)C2)c(C)c1 (stereo not shown)	12.2
COc1cc(C(=O)NC(=S)Nc2ccc(N3CCCC3)cc2)cc(OC)c1OC	-2.18

Compound	hERG current change (%, negative = inhibition) at 10uM [%]
O=C(Cn1cc2c(n1)CCCC2)N1CCCc2ccccc21	-18.5
O=C(O)C1CCCN1S(=O)(=O)c1ccc(F)cc1 (stereo not shown)	26.9
COc1c(Cl)cc(Cl)cc1C(=O)Nc1ccc(C(=O)O)cc1	26.9
Cc1cccc(NC(=O)Cn2cc(C(=O)C3CC3)c3ccccc32)c1C	10.7
Oc1ccc(N=Nc2nc(-c3ccccc3)c(-c3ccccc3)[nH]2)cc1	19.8
CCOC(=O)NC(=O)CSc1nc2ccccc2[nH]1	28.9
Cc1cc2ccccc2nc1SCC(=O)N1c2ccccc2CC1C (stereo not shown)	8.01
CCN(CC)S(=O)(=O)c1cccc(-c2nnc(-c3ccc(C)cc3)o2)c1	18.4
CCOC(=O)c1cc(C(=O)NCc2ccc(Cl)cc2Cl)nn1C	-17
NC(=O)CSc1nc(N)c2c3c(sc2n1)CCCCC3	-30.5
CCN(CC(=O)Nc1ccc(OC)cc1)C(=O)c1cc(S(=O)(=O)N(C)C)ccc1N1CCCC1	-8.62
CC(=O)Nc1ccc(/C(C)=N/NC(=O)c2ccc(F)cc2)cc1	4.2
CC(OC(=O)CCCCCN=C1NS(=O)(=O)c2ccccc21)C(=O)Nc1cc(Cl)cc(Cl)c1 (stereo not shown)	-34.2
N#Cc1ccccc1NC(=O)CNc1ccccc1N1CCCCC1	-14.7
N=C1C(c2ccccc2)=C(O)CN1c1cccc(S(=O)(=O)Nc2cccc(C(F)(F)F)c2)c1	32.3
CSc1ccc(CNCC(O)c2ccccc2)cc1.Cl (stereo not shown)	-55
CCOc1ccc(-c2cn(-c3ccc(OC)cc3)c(SC)n2)cc1	-0.431
CN(C)S(=O)(=O)c1ccc(N2CCCC2)c(C(=O)NCc2ccc(Cl)cc2)c1	-68.5
Cc1ccccc1-c1nc2cc(Cl)ccc2o1	8.3
Cc1ccc2c(c1)N(C(=O)CSc1nncn1C)C(C)(C)c1ssc(=S)c1-2	-21.7
CC1=C(C)CC(C(=O)NCc2cccc(Cl)c2)C(C(=O)O)C1 (stereo not shown)	2.2
O=C(Cn1cnc2scc(-c3ccccc3)c2c1=O)N1CCOCC1	-11.9

Compound	hERG current change (%, negative = inhibition) at 10uM [%]
COCCNC(=O)c1nc2ccccc2s1	-8.79
CCCCS(=O)CC(COCc1ccccc1)OC(=O)CSc1nc(C)cc(C)n1 (stereo not shown)	-40.5
CCOC(=O)CCCNC(=O)CN1CCC(c2nc3ccccc3s2)CC1	-46.8
CCC(=O)Nc1ccccc1C(=O)N1CCCC1	7.25
COc1ccc2c(c1)C(C)CC(C)(C)N2C(=O)NC1CCCCC1 (stereo not shown)	1.9
COc1cc(/C=C(\C#N)C(=O)c2c(C)[nH]c3ccccc23)cc(OC)c1OC	13.2
Cc1ccc(S(=O)(=O)N2CCCCC2)cc1NC(=O)CSc1nnnn1C	-9.78
Cc1ccc2[nH]c(=O)c(CNC(C)C)cc2c1	-3.2
CCOC(=O)C1CCN(C(=O)c2cn(C)c(=O)c3cc(OC)c(OC)cc23)CC1	-11.3
COc1ccc(OC)c2sc(NC(=O)CCS(=O)(=O)c3ccccc3)nc12	18.1
CCOC(=O)COc1ccc(S(=O)(=O)NCc2cccnc2)cc1	5.13
CC1(c2ccccc2)CC(C)(C)N(C(=O)c2cc([N+](=O)[O-])cc([N+](=O)[O-])c2)c2ccccc21 (stereo not shown)	26.9
CC(C)(C)NC(=O)CN(Cc1cccnc1)C(=O)c1csnn1	-4.81
CCCCNC(=O)[C@H](Cc1c[nH]c2ccccc12)NC(=O)c1ccccc1Cl	-8.26
COC(=O)C1SCCN1S(=O)(=O)c1ccc(Cl)cc1 (stereo not shown)	-6.37
CCCc1nc(SCC(=O)NCC2CCCO2)c2c(=O)n(C)c(=O)n(C)c2n1 (stereo not shown)	6.13
O=C(Nc1ccc2nc3n(c(=O)c2c1)CCCC3)c1ccccc1[N+](=O)[O-]	13.9
N=c1ccccn1CC(O)COc1ccccc1 (stereo not shown)	-3.09
COc1ccc(C2CC(c3ccccc3)=NN2C(=O)COC(=O)C2(C)CC2(Cl)Cl)cc1 (stereo not shown)	17
CCOc1ccc(CNc2ccc(S(N)(=O)=O)cc2)cc1	-6.78
COc1ccc(-c2cn(-c3ccc(Br)cc3)c3[n+]2CCS3)cc1.[Br-]	-66.7
Cc1cc(O)ccc1NC(=O)CCN1C(=O)c2ccc([N+](=O)[O-])cc2C1=O	-24.1
